Laboratory results taken from PubChem BioAssay (NCATS).
The shares of active, inactive and inconclusive entries below differ from those in the screen. Potencies of inconclusive entries are doubtful fits and often do not repeat. A note “side channel” means that the fit belongs to a control or component signal, not to the main read-out. Calls of active or inactive are those of the source. The call rests on the fitted dose curve; in most records, active means well fitted activation curve with a large enough effect in the signal ratio, with a control signal flat (not every such curve was filed as active); inconclusive means small, poorly fitted or top-dose-only effect, or effect the other way, or a change in a side signal; inactive means flat fitted curve, though single readings scatter; the % refers to the signal ratio.

assay: qHTS Assay for Identification of Small Molecule Agonists for Hypoxia Response Element Signaling Pathway (AID 914); settings: ME-180 (cervical carcinoma) HRE-bla reporter, beta-lactamase ratio, CoCl2, 17 h; activation: active compounds read high; on activation: top concentration of the series differs between compounds; % of control where 0% means no effect
In short: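 qHTS titration; ME-180 HRE-bla cells; EC50 CoCl2 co-treatment, 17 h at 37 degrees Celsius; CCF4 dye, ex 405nm, em 460nm and 530nm; %Activity from ratio; AC50.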
Potency means the concentration at half of the fitted maximal effect; tags describe the fitted curve by direction and shape or compound fluorescence and quenching.

Potency, active:
COc1ccc(OC)c2c(N)c(C#N)c(C(F)(F)C(F)(F)F)nc12 10 µM
Cc1ccc(S(=O)(=O)c2cc3c(=O)n4ccccc4nc3n(C)c2=N)cc1 7.94 µM

Potency, inconclusive:
C=C1c2cc(OC)ccc2NC(=O)N1CC 12.6 µM [activator, single point]
Cc1ccc(SCc2c(C#N)c3ccccc3n2C)cc1 7.94 µM [inhibitor, partial curve]
COc1ccc(NCc2c(O)ccc3ccccc23)cc1 3.16 µM [inhibitor, single point]
Cn1cccc1C(=O)N1CCC2(CCCN(c3ccccn3)C2)CC1 3.98 µM [activator, single point]
C=CCNC(=O)C(C#N)c1nc2ccccc2nc1N1CCCCCC1 (stereo unspecified) 3.16 µM [inhibitor, partial curve]
CN1C2C=C3C(C#N)=C(N)C(C#N)(C#N)[C@@H](c4ccsc4)[C@@H]3C1CC2 (stereo partly specified) 10 µM [inhibitor, single point]
COc1ccc(Oc2ncc3nc(-c4ccccc4)c(=O)n(Cc4cccs4)c3n2)cc1 5.01 µM [side channel, falling, single point]
COc1ccc(CCn2c(=N)c(C(=O)NCc3ccco3)cc3c(=O)n4ccccc4nc32)cc1 10 µM [activator, partial curve]
Cc1cccc(OCCN2CSC(=S)N(C)C2)c1 5.01 µM [inhibitor, partial curve]
CCOc1ccccc1N1CCN(c2nc3ccccc3nc2C(C#N)C(=O)OC)CC1 (stereo unspecified) 10 µM [inhibitor, partial curve]
N#Cc1cccc(-n2c(-c3ccccc3)nnc2-c2ccccc2)c1C#N 3.16 µM [inhibitor, full curve]

activation, inconclusive:
CCN1CC2=C(OC(N)=C(C#N)C2c2ccccc2)/C(=C\c2ccccc2)C1 (stereo unspecified) -30.2%
Cc1cccc(C(=O)O)c1C[C@H]1NCC[C@H]2c3ccccc3N[C@@H]12 8.08%
CO[C@@H](NC(N)=O)C(=O)O 17.5%
O=c1oc2c(CN3CCCCC3)c(O)ccc2c2c1CCCCC2 10.9%
COC(=O)c1[nH]c(C)c(/C(O)=C2\C(=O)C(=O)N(CCN3CCOCC3)C2c2cccnc2)c1C (stereo unspecified) 10.7%
C=CCSC[C@@H]1Nc2cc(Cl)c(S(N)(=O)=O)cc2S(=O)(=O)N1 15%
O=C(O)CC(CC(=O)O)n1cccc1 -7.61%
Oc1ccc(Br)cc1-c1cc(-c2ccccc2F)[nH]n1 16.2%
c1ccc(CO[C@H]2NCCN2Cc2ccccc2)cc1 7.66%
Cc1ccc(CNc2oc(COc3ccccc3Cl)nc2C#N)cc1 -21.1%
O=C1[C@@H]2[C@H](C(=O)N1O)[C@H]1C=C[C@@H]2C1 -1.9%
CCCCNC(=O)C(C#N)c1nc2ccccc2nc1N1CCN(Cc2ccc3c(c2)OCO3)CC1 (stereo unspecified) -17.2%
N#CCSc1nc2sc3c(c2c(=O)n1C1CCCCC1)CCCC3 -30.3%
O=C(c1csnn1)N1CCC2(CCN(Cc3cc(C(F)(F)F)cc(C(F)(F)F)c3)CC2)CC1 -17.3%
CCSc1nnc(NC(=O)C(C(F)(F)F)C(F)(F)F)s1 35.2%

activation, inactive:
Cc1cc(C)nc(N(C#N)CN2C(=O)c3ccccc3C2=O)n1 12.2%
Cc1noc(C)c1C(=O)N1CCC2(CCN(Cc3ccncc3)CC2)CC1 14.4%
C=CCc1cccc(/C=N/c2ncn[nH]2)c1O 26.2%
CC(C)OCCCn1c(=N)c(C(N)=S)cc2c(=O)n3ccccc3nc21 13.6%
COc1ccc(C2CC(=O)c3sc(N)nc3C2)cc1 (stereo unspecified) -11%
Cc1nn(CCO)c2c1C(=O)CCC2 12.2%
COc1ccccc1C1/C(=C(\O)c2ccc3c(c2)OCCO3)C(=O)C(=O)N1CCCN(C)C (stereo unspecified) -1.93%
COc1ccccc1CN1CCCC2(CCN(C(=O)c3csnn3)CC2)C1 12.1%
